Test results published in the BET-seq Pho4 binding data (Le et al. 2018).
Some of the results follow. Values were computed here from the reads of four pooled replicates and scatter widely.

Molecular target: T1, Pho4 (S. cerevisiae) (UniProt P07270)
T1 sequence: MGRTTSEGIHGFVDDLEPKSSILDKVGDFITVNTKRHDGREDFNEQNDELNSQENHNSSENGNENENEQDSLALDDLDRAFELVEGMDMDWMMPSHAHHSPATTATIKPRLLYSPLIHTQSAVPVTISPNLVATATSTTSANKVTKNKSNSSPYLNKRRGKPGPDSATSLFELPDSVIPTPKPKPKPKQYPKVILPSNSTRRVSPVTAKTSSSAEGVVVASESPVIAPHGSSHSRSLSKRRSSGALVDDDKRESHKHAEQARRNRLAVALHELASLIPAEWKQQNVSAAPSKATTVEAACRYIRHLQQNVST
Experiment: relative binding free energy (BET-seq); higher = weaker binding
Settings: reference: library average

Sequence | relative binding free energy
TGTTGCACGTGCAGGC | -0.13 kcal/mol
AGGTTCACGTGCGCTT | 0.22 kcal/mol
TGATGCACGTGGTAAA | -0.02 kcal/mol
TGTGACACGTGCGTTC | 0.04 kcal/mol
GGAAGCACGTGTGGCA | -0.12 kcal/mol
AGGTTCACGTGGATTC | 0.33 kcal/mol
AGCCGCACGTGGGGGA | -0.17 kcal/mol
TTAGACACGTGATAGT | 0.12 kcal/mol
AGTTGCACGTGCCGTT | 0.03 kcal/mol
TATTCCACGTGCTTTT | 0.11 kcal/mol
TCGGGCACGTGGAATG | -0.06 kcal/mol
GGATACACGTGGCTGG | -0.01 kcal/mol
TTTGACACGTGTACTT | -0.14 kcal/mol
GGCTTCACGTGGCAGG | 0.35 kcal/mol
TATCGCACGTGCTGTG | -0.09 kcal/mol
TGTTTCACGTGGGGAA | 0.19 kcal/mol
GGGGACACGTGTGGCA | 0.09 kcal/mol
CGGTTCACGTGAAGAT | 0.39 kcal/mol
CGTATCACGTGTGTGA | 0.22 kcal/mol
ATTCGCACGTGGTGGC | -0.08 kcal/mol
TATGTCACGTGTGAGG | 0.09 kcal/mol
TGTGGCACGTGCTGGG | -0.09 kcal/mol
TGCATCACGTGGGAAT | 0.21 kcal/mol
AGTAGCACGTGCGTAG | -0.15 kcal/mol
ATTGGCACGTGTGAAA | 0.02 kcal/mol
AACTTCACGTGGTGTT | 0.16 kcal/mol

Sequence | relative binding free energy
CGGTGCACGTGTGGAG | -0.05 kcal/mol
ATTGACACGTGGTGAC | 0.02 kcal/mol
GTTGACACGTGGGGTG | -0.07 kcal/mol
TGGGACACGTGTTAAT | 0.09 kcal/mol
AGTATCACGTGATTTT | 0.32 kcal/mol
ATTTGCACGTGGAGAA | 0.04 kcal/mol
TGGAGCACGTGGGTCG | -0.29 kcal/mol
AATGTCACGTGTAGAT | 0.28 kcal/mol
CGAAGCACGTGGCGTG | -0.12 kcal/mol
CTATGCACGTGAGTTA | 0.14 kcal/mol
AAGTTCACGTGCAGTT | 0.22 kcal/mol
TGATGCACGTGAGTGC | 0.07 kcal/mol
AAGTACACGTGAGTAG | 0.24 kcal/mol
GTTCTCACGTGTGGGA | 0.08 kcal/mol
GATGGCACGTGTTCTG | 0.1 kcal/mol
AGTGACACGTGGCTTT | -0.21 kcal/mol
GGGGTCACGTGCAGAT | 0.09 kcal/mol
GGTTACACGTGGGGGT | 0.11 kcal/mol
CGGGGCACGTGAGTGC | 0.13 kcal/mol
GAAAACACGTGGGGGT | -0.02 kcal/mol
GGGACCACGTGAGTTG | 0.26 kcal/mol
ATTTACACGTGGGACT | 0.06 kcal/mol
ATATGCACGTGGTGTA | -0.14 kcal/mol
TTTGTCACGTGGATTC | 0.17 kcal/mol
CTATTCACGTGCGGTA | 0.38 kcal/mol
GTAATCACGTGTGATG | 0.17 kcal/mol

Sequence | relative binding free energy
CTTTACACGTGTTGTG | -0.01 kcal/mol
GGGTTCACGTGATGGC | 0.34 kcal/mol
GAGTACACGTGGGTGG | 0.05 kcal/mol
GTTAACACGTGGAAGG | 0.07 kcal/mol
ACTTTCACGTGGGCAT | 0.24 kcal/mol
AATGGCACGTGTCTTA | -0.04 kcal/mol
TTCCGCACGTGGGGGA | -0.27 kcal/mol
TGAGGCACGTGGAAAA | 0.16 kcal/mol
TTGAGCACGTGGGATC | -0.05 kcal/mol
CGTTACACGTGTTTGG | 0 kcal/mol
GAGGACACGTGGGCTT | 0.02 kcal/mol
GGCGTCACGTGGTGCA | 0.19 kcal/mol
GTAGGCACGTGCGGGA | -0.1 kcal/mol
GGGGGCACGTGAAGTC | 0.23 kcal/mol
GGAGGCACGTGCATTT | -0.06 kcal/mol
TGGAGCACGTGTCGGT | -0.03 kcal/mol
ATTTCCACGTGTTGTA | 0.11 kcal/mol
GTTGGCACGTGGTTGC | 0.05 kcal/mol
ATTTTCACGTGTGTAC | 0.22 kcal/mol
TATGACACGTGGCGTT | -0.09 kcal/mol
AGTGTCACGTGTTCGG | 0.01 kcal/mol
AAGGGCACGTGGATGG | -0.08 kcal/mol
TTTATCACGTGGGTCG | 0.13 kcal/mol
TCGTACACGTGAGTTG | 0.22 kcal/mol
AAGCTCACGTGGGTGG | 0.01 kcal/mol
ATGAACACGTGAGTTT | 0.32 kcal/mol

Sequence | relative binding free energy
AAGTGCACGTGACGTT | 0.12 kcal/mol
GGATGCACGTGTTGAC | 0.07 kcal/mol
ATTGTCACGTGGTTCA | 0.07 kcal/mol
TGGAACACGTGGGGTC | -0.13 kcal/mol
AGTTACACGTGGTGAT | 0.17 kcal/mol
GAGGGCACGTGGTCTG | -0.21 kcal/mol
TCCATCACGTGTGGGG | 0.23 kcal/mol
AGGTACACGTGAGGTC | 0.26 kcal/mol
TGTTACACGTGGAAAG | 0.2 kcal/mol
TTAAGCACGTGAGTGA | 0.07 kcal/mol
TGTTACACGTGCGGCT | 0.14 kcal/mol
GTAATCACGTGGCATG | 0.03 kcal/mol
GAGGTCACGTGATTTT | 0.26 kcal/mol
TTGCACACGTGGGGAA | -0.05 kcal/mol
TGGAGCACGTGGAGTT | 0.02 kcal/mol
TGTTTCACGTGGGTTC | 0.16 kcal/mol
TTTGGCACGTGAGTAT | 0.15 kcal/mol
ATGTTCACGTGATGGT | 0.33 kcal/mol
AATAGCACGTGTTGGG | -0.07 kcal/mol
TGGTTCACGTGCAGTC | 0.38 kcal/mol
TATTACACGTGGTTGC | 0.11 kcal/mol
TTGGTCACGTGTTGGA | 0.1 kcal/mol
TTGCACACGTGGGGTT | -0.03 kcal/mol
TCAAACACGTGGTGGG | -0.08 kcal/mol
TGAGACACGTGGTGAG | 0.03 kcal/mol
GTATGCACGTGTCGGG | 0 kcal/mol

Sequence | relative binding free energy
GATGCCACGTGGATGG | -0.02 kcal/mol
GGAGGCACGTGGTGAA | -0.1 kcal/mol
AGCGTCACGTGATGGA | 0.17 kcal/mol
GAAATCACGTGTGGGC | 0.24 kcal/mol
GATTGCACGTGATGAA | 0.2 kcal/mol
TGGGGCACGTGCTAAG | -0.09 kcal/mol
GGGTACACGTGAGAAG | 0.35 kcal/mol
GTATGCACGTGTAGAT | 0.1 kcal/mol
AAAGGCACGTGAAGTG | 0.08 kcal/mol
AATAACACGTGAGGGT | 0.12 kcal/mol
TTTTGCACGTGGGTAG | -0.15 kcal/mol
AAAAGCACGTGGTGTG | -0.16 kcal/mol
TGACTCACGTGAATTG | 0.43 kcal/mol
TGGAGCACGTGGTTAC | -0.06 kcal/mol
TTATACACGTGGCGTT | -0.05 kcal/mol
CGGGACACGTGAAGGT | 0.5 kcal/mol
TGAATCACGTGTAAGA | 0.31 kcal/mol
GCGTGCACGTGATGCG | 0.16 kcal/mol
GTTAGCACGTGGCGCG | -0.08 kcal/mol
AGGCGCACGTGGGGAC | -0.22 kcal/mol
AATAGCACGTGGAAGT | 0.01 kcal/mol
GTGGGCACGTGTACGA | 0 kcal/mol
CTTGTCACGTGAGGGG | 0.31 kcal/mol
GGGGTCACGTGGGAGA | 0.17 kcal/mol
CTTAGCACGTGTTGTA | -0.03 kcal/mol
ACGAGCACGTGTTTGT | -0.08 kcal/mol

Sequence | relative binding free energy
GACAGCACGTGTGTTT | 0.24 kcal/mol
TCTTTCACGTGCGGTG | 0.14 kcal/mol
TCTAGCACGTGAGTTG | 0.22 kcal/mol
AGGAACACGTGGGGCG | -0.11 kcal/mol
GATCTCACGTGTGTTG | 0.16 kcal/mol
ATTGTCACGTGCGAGG | 0 kcal/mol
TGCGGCACGTGGGCTT | -0.29 kcal/mol
CTAATCACGTGTTGGG | 0.15 kcal/mol
TGTATCACGTGGTCAT | 0.09 kcal/mol
TATGTCACGTGTTCGC | 0.15 kcal/mol
ATTTGCACGTGGTTTC | 0.04 kcal/mol
AAGATCACGTGGAGGA | 0.27 kcal/mol
AGGGTCACGTGTCGCT | 0.13 kcal/mol
TTTTCCACGTGTAGTG | 0.07 kcal/mol
GTCATCACGTGGGGAG | 0 kcal/mol
AGAAGCACGTGTGTCT | 0.06 kcal/mol
TAGGTCACGTGTTGTC | 0.15 kcal/mol
TTTGGCACGTGGTGGT | -0.05 kcal/mol
ATACGCACGTGGAGGG | -0.07 kcal/mol
TAGTTCACGTGCCGGG | 0.11 kcal/mol
AATGTCACGTGTGACT | 0.26 kcal/mol
AGTTGCACGTGGGTGC | -0.03 kcal/mol
GGAGTCACGTGGCGGC | 0.1 kcal/mol
TGGCGCACGTGTGCTG | -0.14 kcal/mol
TGGCGCACGTGGTGCA | -0.12 kcal/mol
GGTCCCACGTGGGTTT | -0.09 kcal/mol

Sequence | relative binding free energy
GCTAGCACGTGGTGGG | -0.12 kcal/mol
TTCGACACGTGAGGCG | 0.26 kcal/mol
GTACACACGTGGGGCG | 0.06 kcal/mol
TTGGTCACGTGGTTAA | 0.07 kcal/mol
GGTGGCACGTGCGTGA | -0.13 kcal/mol
GGTGGCACGTGGGGCA | -0.11 kcal/mol
TGTGTCACGTGGACAA | 0.14 kcal/mol
TGTCTCACGTGGTAGG | 0.12 kcal/mol
ATCGACACGTGGGGAG | -0.08 kcal/mol
TTCGACACGTGGTGGT | -0.05 kcal/mol
GTTGTCACGTGCTGAG | 0.26 kcal/mol
ATTGGCACGTGATGAG | -0.04 kcal/mol
ATGAGCACGTGCGGGT | -0.23 kcal/mol
GTCGTCACGTGGGTGT | 0.02 kcal/mol
CAGAACACGTGTGGTG | 0.1 kcal/mol
GTAGACACGTGTGGAG | 0.03 kcal/mol
GAATACACGTGGGGTC | 0.04 kcal/mol
TTAGGCACGTGTGTTG | -0.03 kcal/mol
GGGGTCACGTGTGCCG | 0.21 kcal/mol
AAATGCACGTGTGTGC | -0.02 kcal/mol
GGGAACACGTGATTGA | 0.15 kcal/mol
TTTAACACGTGGTATA | -0.09 kcal/mol
TGAGACACGTGTTTTT | -0.05 kcal/mol
TGTGTCACGTGAATGA | 0.24 kcal/mol
TTACTCACGTGGGTGC | -0.01 kcal/mol
TGTTCCACGTGTGTAA | 0.07 kcal/mol

Sequence | relative binding free energy
GCGTGCACGTGTTTGG | -0.06 kcal/mol
GCGGGCACGTGGGTTG | -0.2 kcal/mol
GTAGTCACGTGTTGGA | 0.09 kcal/mol
TGTTGCACGTGCTCTT | -0.01 kcal/mol
GTTGTCACGTGTTTGT | 0.18 kcal/mol
GTGTCCACGTGGGTAG | -0.07 kcal/mol
CGTCGCACGTGATGTT | 0.17 kcal/mol
TGGATCACGTGGTAAC | 0.23 kcal/mol
ATGATCACGTGTTTGT | 0.12 kcal/mol
GTGCGCACGTGTTGTT | -0.06 kcal/mol
GTTTGCACGTGGAGTA | 0.12 kcal/mol
GCTGGCACGTGTGGTC | 0 kcal/mol
CAGGGCACGTGTGTTA | 0.08 kcal/mol
TGGAGCACGTGGGAAT | -0.1 kcal/mol
ATTCTCACGTGGGATG | 0.08 kcal/mol
TGTTCCACGTGAAGGT | 0.19 kcal/mol
GGAGTCACGTGCTTGA | 0.16 kcal/mol
AGCTACACGTGGTTGT | 0.06 kcal/mol
AGGGGCACGTGGAGCA | -0.09 kcal/mol
TAAGTCACGTGATGGT | 0.17 kcal/mol
ACGGTCACGTGTTGTT | 0.03 kcal/mol
TTGATCACGTGTAGGT | 0.19 kcal/mol
TAGGTCACGTGGGGGA | -0.03 kcal/mol
GGTGACACGTGGGAAG | 0.04 kcal/mol
TGAGTCACGTGATAGG | 0.23 kcal/mol
ATGTACACGTGTTATT | -0.05 kcal/mol

Sequence | relative binding free energy
CGTGTCACGTGGGCCG | -0.08 kcal/mol
AGCTTCACGTGGTGGA | 0.29 kcal/mol
TGCTCCACGTGTATGG | 0.12 kcal/mol
TTAGTCACGTGTGATA | 0.19 kcal/mol
TGGGCCACGTGAGTTC | 0.25 kcal/mol
TAGGACACGTGCGGCG | 0.12 kcal/mol
GGCAGCACGTGGAGGC | -0.1 kcal/mol
GGGTGCACGTGAGAGT | 0.27 kcal/mol
GAAATCACGTGGAGGT | 0.26 kcal/mol
CTGGCCACGTGTTTGT | -0.03 kcal/mol
TTTTGCACGTGGACTA | -0.07 kcal/mol
AATGGCACGTGTTAGA | -0.06 kcal/mol
GGTTTCACGTGTTATT | 0.38 kcal/mol
CATGGCACGTGTAGTA | -0.08 kcal/mol
TGTCGCACGTGCGCGT | -0.15 kcal/mol
AGAGGCACGTGGTTTG | -0.13 kcal/mol
AGTGGCACGTGTGTCA | -0.02 kcal/mol
GCTATCACGTGGAGGT | 0.26 kcal/mol
GGGTACACGTGTGTCG | 0.15 kcal/mol
AGTATCACGTGGTAAT | 0.12 kcal/mol
TATTTCACGTGTGCGA | 0.42 kcal/mol
GGTTGCACGTGTTTCT | 0.11 kcal/mol
